The results in this text go back to patent US20250320290A1, “METHODS FOR TRIGGERING SAFETY KILLING […] USING A CD47-SIRPalpha BLOCKADE AGENT” (Sana Biotechnology, Inc., priority 2020, published 2025).

One assay deals with CD19 HIP CAR. Briefly: In vitro Xcelligence killing of CD19 HIP CAR T cells by NK cells or macrophages with fusion proteins. The following applies: NK cells, macrophages. Type of assay: cell-based, human. The protocol:
In vitro read-out was performed with Xcelligence.

The subject of assay [1] is human HIP iPSCs. The experiment in a line: Subcutaneous human HIP iPSCs in NSG mice with adoptive transfer of human NK cells, BLI. Type of assay: in vivo. Particulars: fusion protein local 1 mg D0, D1, D3; re-injection of iPSCs D20 and D40 followed by injections for 3 days. How it is done: Subcutaneous. Healthy male NSG mice were anesthetized via isoflurane inhalation anesthesia in a knockdown chamber. The anesthetized mice were removed from the chamber and placed in a supine position. The injection site (right inguinal area) was sprayed with 70% EtOH. Cells were injected subcutaneously proximal to the inguinal region.
(§1) The mice were then positioned in a nose cone in the bioluminescence chamber (anesthesia was maintained at 1.5% with 500 ml oxygen/min). The mice were imaged for 180 seconds. A circle was drawn around the region of interest (ROI) giving a reading of photons/sec of emitted light.
(§2) IP dosing. The antibody (100 μl) was injected into the peritoneal cavity from the ventral surface by piercing the skin and muscle layers.
SC dosing. Mice were anesthetized via isoflurane inhalation anesthesia and placed in a supine position. The injection site (right inguinal area) was sprayed with 70% EtOH and the antibody (100 μl) was injected into the area of the implanted cells.

Assay [2] concerns HIP CAR T cells / Nalm-6 tumor. Briefly: Nalm6 tumor model in NSG mice with human NK cells and HIP CAR-T cells with or without fusion protein. It is filed as in vivo. The following applies: for tumor growth: HIP CAR T cells plus fusion protein; for killing of HIP CAR T cells: fusion protein intravenously. How it is done:
NSG mice were studied using a Nalm6 tumor model. Adoptive transfer of human NK cells and human HIP CAR-T cells was performed intravenously with and without fusion protein intravenously. 100U/ml IL-2 was thawed overnight before sorting, followed by 100U/ml IL-2 overnight after sorting and before injection (FIG. 30). When HIP CARs were eliminated by a safety strategy, Nalm-6 tumor grew (FIG. 31).

For assay [3], the system named is human HIP iPSCs in the brain. Briefly: Intracranial human HIP iPSCs in NSG mice with adoptive transfer of human NK cells and human microglia. It is filed as in vivo. The protocol:
Brain. 24 to 48 hours prior to scheduled surgery, animals were provided with MediGel (Clear H2O, Portland, ME) with carprofen (5 mg/Kg/day). The amount calculated was based on standard intake. To each cup of MediGel (sucralose), 1.5 mg of carprofen was added. Alternatively, buprenorphine (0.05-0.1 mg/Kg IM or IP) BID every 12 hours for three days or Buprenorphine SR (0.5-1.0 mg/Kg SC) was administered once prior to the start of surgery. Buprenorphine SR or buprenorphine was not used post-operatively in conjunction with MediGel.
On surgery day, animals were anesthetized and maintained via isoflurane inhalation (3% and 1.5%, respectively). The top of the head was shaved and scrubbed with chlorhexidine and wiped with 70% EtOH. The animal was placed on a stereotaxic device. An incision was made midline through the scalp long enough to easily expose midline suture from bregma to lambda.
At pre-determined coordinates (as identified by the Allen Brain Atlas or George Paxinos' Mouse Brain Atlas), the cranium was drilled through without penetrating the dura. A micro-drill was exchanged for a micro-infusion pump with a Hamilton syringe and needle. The needly was “dropped” to the depth required to reach the target area of the brain and injectate (differentiated stem cells in 1 μl-5 μl saline) was infused. The incision was closed with absorbable suture and mouse recovered on a warming pad. Animals were maintained on MediGel (sucralose gel with carprofen) for 3 days.
as §1, §2

The test system of assay [4] is human HIP iPSCs. The experiment in a line: In vitro killing of HIP cells with SIRPαFc fusion proteins (NK, ADCC NK, CDC, macrophage, ADCC macrophage). Type of assay: cell-based. Particulars: macrophages. The source says: SIRPαFc fusion proteins were studied in vitro for their effects on human iPSCs. Effects on HIP CD19CAR-T cells were studied with respect to killing mediated by NK cells, ADCC NK cells, and CDC (FIG. 18A). Effects on HIP cells with SIRPα IgG1Fc were studied with respect to killing mediated by NK cells, ADCC NK cells, and CDC (FIG. 18B). Effects on HIP cells with SIRPα IgG4Fc (including a dKO killing control) were studied with respect to killing mediated by NK cells, ADCC NK cells, and CDC (FIG. 18C). Effects on HIP cells were studied with respect to killing mediated by macrophages and ADCC macrophages (FIG. 18D). Effects on HIP cells with SIRPα IgG1Fc were studied with respect to killing mediated by macrophages and ADCC macrophages (FIG. 18E). Effects on HIP cells with SIRPα IgG4Fc (including a dKO killing control) were studied with respect to killing mediated by macrophages and ADCC macrophages (FIG. 18F).

The mark [5] stands for this setting: local (intracranial) 1 mg D0, D1, D3.

B1: SIRPα IgG4Fc: SIRPαFc fusion protein with IgG4 Fc; mediates killing by blocking of CD47 (protein)
chain: [about 120 residues omitted]KPSAPVVSGPAARATPQHTVSFTCESHGFSPRDITLKWFKNGNELSDFQTNVDPVGESVSYSIHSTAKVVLTREDVHSQVICEVAHVTLQGDPLRGTANLSETIRVPPTLEVTQQPVRAENQVNVTCQVRKFYPQRLQLTWLENGNVSRTETASTVTENKDGTYNWMSWLLVNVSAHRDDVKLTCQVEHDGQPAVSKSHDLKVSAHPKEQGSNTAAENTGSNERNIY
modifications: left off: a dimerising Fc or GST
On to B1, for which, in the assay with CD19 HIP CAR, the “CD47 blocking in vitro” value is recorded as “CD47 blocking”. Moreover, the “effect on HIP iPSCs” value in the assay with human HIP iPSCs [1] is reported as “CD47 blocking”. Moreover, in assay [2], the tumor growth entry is recorded as “comparable to mock transfected T cell group” and the “killing of HIP CAR T cells” value is “killing of HIP CAR T cells”. The “mice with killing of HIP iPSCs in the brain” value in assay [3] (setting [5]) is listed as 1 out of 5. In addition, the “mechanism of killing of HIP cells” value in the assay with human HIP iPSCs [4] is on record as “mediate killing by blocking of CD47”.

B2: SIRPα IgG1Fc: SIRPαFc fusion protein with IgG1 Fc; blocks CD47 and induces CDC and ADCC (protein)
chain: [about 120 residues omitted]KPSAPVVSGPAARATPQHTVSFTCESHGFSPRDITLKWFKNGNELSDFQTNVDPVGESVSYSIHSTAKVVLTREDVHSQVICEVAHVTLQGDPLRGTANLSETIRVPPTLEVTQQPVRAENQVNVTCQVRKFYPQRLQLTWLENGNVSRTETASTVTENKDGTYNWMSWLLVNVSAHRDDVKLTCQVEHDGQPAVSKSHDLKVSAHPKEQGSNTAAENTGSNERNIY
modifications: left off: a dimerising Fc or GST
As to B2, the “CD47 blocking in vitro” value in the assay with CD19 HIP CAR is “CD47 blocking”. For the same molecule, the “effect on HIP iPSCs” value in the assay on human HIP iPSCs [1] was “killing of HIP iPSCs repeatedly in all mice”. Also, in assay [2], the tumor growth entry is reported as “comparable to mock transfected T cell group” and the “killing of HIP CAR T cells” value was “killing of HIP CAR T cells”. Moreover, in assay [3] (compared to local administration), the “efficiency of intraperitoneal application” value is “less efficient compared to local administration”. For the same molecule, the “mice with killing of HIP iPSCs in the brain” value in assay [3] (intraperitoneal 1 mg D0, D1, D3, blood brain barrier broken by mannitol) is listed as 1 out of 5. For the same molecule, the “potency compared with SIRPα IgG4Fc” value in assay [3] (local 1 mg D0, D1, D3) is “more potent”. Also, the “killing of HIP iPSCs in the brain” value in assay [3] (setting [5]) is on record as “killing of HIP iPSCs in the brain”. Moreover, the “mechanism of killing of HIP cells” value in the assay with human HIP iPSCs [4] was “additionally induce CDC and ADCC”.
